Results from PubChem BioAssay AID624171 (National Center for Advancing Translational Sciences (NCATS), 2012).
The campaign covered roughly 410,000 compounds. About 1,200 (0.29%) were called active. Inconclusive results, whose numbers are uncertain, are shown with a selection of clear calls. Calls come from the whole dose curve; as a rule, active = well fitted activation curve with a large enough effect; inconclusive = small, poorly fitted or top-dose-only effect; inactive = flat fitted curve, though single readings scatter. Potencies of inconclusive entries are doubtful fits and often do not repeat.

assay: qHTS of Nrf2 Activators; details: AREc32 ARE-luciferase reporter (MCF7-derived line), luminescence, 24 h; activation: at 46.1 µM (top of the series); note: nearly all actives have a fitted effect of over 65% in size; for activation: % of control where 0% means no effect
How it was run: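 Each well held 1000 AREc32 cells, which were incubated with compound for 24 hr at 37 deg C after overnight attachment, and ARE reporter activity was quantified by firefly luciferase luminescence.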
Potency is the fitted concentration of half-maximal effect; tags give direction and shape of the fitted curve.

SMILES	Potency	activation
O=C(NC(=S)Nc1nc(-c2ccccc2)cs1)c1cccs1	inconclusive: 2.51 µM [activator, full curve, poor fit]	–
COC(=O)c1cc(COc2ccc3oc(C)c(C(=O)OC)c3c2)c(C)o1	–	inactive: 3.98%
COCCSc1ccccc1C(=O)Nc1ccncc1	–	inactive: -0.692%
c1coc(C2=NC(c3ccco3)C(c3ccco3)N2)c1 (stereo unspecified)	inconclusive: 15.8 µM [activator, single point]	–
O=C1/C(=C\c2ccccc2)CCC/C1=C/c1ccccc1	inconclusive: 25.1 µM [activator, single point]	–
CN(Cc1ccco1)C(=O)CCc1nc2sc3c(c2c(=O)[nH]1)CCCC3	inconclusive: 15.8 µM [activator, single point]	–
CCN=c1scc(C)n1/N=C/c1ccsc1	active: 7.08 µM	–
COc1ccc([C@H]2CC(=O)C=C(/C=C/Cc3ccccc3)C2)cc1	inconclusive: 25.1 µM [activator, single point]	–
COc1ccc(Nc2oc(-c3ccco3)nc2S(=O)(=O)c2ccc(F)cc2)cc1	inconclusive: 22.4 µM [activator, single point]	–
CCOC(=O)C1Nc2c(F)cc(C)cc2C2c3ccccc3CC12 (stereo unspecified)	active: 11.2 µM	–
CCCOc1cccc(C(=O)Nc2cccc3cccnc23)c1	inconclusive: 7.94 µM [activator, partial curve, poor fit]	–
O=C(CCCN1C(=O)/C(=C/c2cccs2)SC1=S)Nc1ccc(O)cc1	inconclusive: 22.4 µM [activator, single point]	–
Cc1[nH][nH]c(=O)c1C(c1c(C)[nH][nH]c1=O)c1cn(Cc2ccc(F)cc2)c2ccccc12	inconclusive: 17.8 µM [activator, single point]	–
CNC(=O)/C(C#N)=C/c1ccc(-c2nc3ccccc3s2)o1	–	inactive: 7.98%
Cc1c(C(=O)NCc2cccc(Cl)c2)sc2ncnc(N(C)C3CCCCC3)c12	–	inactive: -2.2%
C=C(C(=O)c1ccccc1)C(c1ccccc1)C(C)C(=O)c1ccccc1 (stereo unspecified)	inconclusive: 15.8 µM [activator, single point]	–
COc1ccc(-c2cn(-c3ccc(C)cc3)c(S(=O)(=O)CC(=O)Nc3ccc(F)cc3)n2)cc1	–	inactive: 5.54%
CCC(=O)Nc1ccc(SC#N)cc1C	inconclusive: 28.2 µM [activator, single point]	–
FC(F)(F)c1cc(Cl)c2nc(-c3ccco3)c(Cc3ccccc3C(F)(F)F)n2c1	inconclusive: 22.4 µM [activator, single point]	–
CC1CCCc2sc3nc(SCC(=O)c4ccc(Br)cc4)nc(N)c3c21 (stereo unspecified)	–	inactive: 6.58%
COc1ccccc1NC(=O)c1ccc(Cl)c(S(=O)(=O)NCc2ccco2)c1	inconclusive: 6.31 µM [activator, partial curve, poor fit]	–
O=C(NNC(=O)C12CC3CC(CC(C3)C1)C2)c1cccc([N+](=O)[O-])c1	active: 10 µM	–
O=C1CC(c2ccccc2)Sc2nc3ccccc3n21 (stereo unspecified)	inconclusive: 22.4 µM [activator, single point]	–
Cc1ccc(S(=O)(=O)c2nc(S(C)(=O)=O)sc2N2CCCCC2C)cc1 (stereo unspecified)	inconclusive: 2 µM [activator, full curve]	–

SMILES	Potency	activation
O=C(c1cccs1)N(C(=O)c1cccs1)c1ccc(Br)cn1	inconclusive: 11.2 µM [activator, partial curve, poor fit]	–
CCOn1c(=O)c(=O)n(OCc2ccccc2)c2ccccc21	active: 22.4 µM	–
Cc1cc(O)c(C(=O)Cc2csc(C)n2)c(O)c1	–	inactive: 7.67%
O=C1Oc2ccccc2C(=O)/C1=C/c1ccccc1O	inconclusive: 35.5 µM [activator, single point]	–
O=C(/C=C/c1ccc(Cl)cc1Cl)c1ccc[nH]1	inconclusive: 4.47 µM [activator, single point]	–
COc1ccc(CNS(=O)(=O)NCc2ccc(OC)c(OC)c2)cc1	–	inactive: -0.0113%
c1ccc(Sc2ncnc3c2oc2ccccc23)nc1	inconclusive: 20 µM [activator, partial curve, poor fit]	–
CCOc1ccc(NC(=O)CSc2ccc(-c3ccco3)nn2)cc1	–	inactive: 9.45%
COc1ccccc1NC(=O)Cn1c(=O)n(Cc2ccccc2)c(=O)c2c1c1cc(C)ccc1n2C	–	inactive: -0.523%
COc1cccc(/C=C/C(=O)OCC(=O)c2ccc(S(=O)(=O)N3CCCCC3)cc2)c1OC	inconclusive: 17.8 µM [activator, single point]	–
Brc1ccc(-c2nnc(-c3ccccc3Br)o2)cc1	inconclusive: 5.62 µM [activator, partial curve]	–
N=C(N)SCP(=O)(c1ccccc1)c1ccccc1	inconclusive: 31.6 µM [activator, single point]	–
Cc1csc(NC(=O)CCS(=O)(=O)c2ccc(Br)cc2)n1	inconclusive: 25.1 µM [activator, single point]	–
C(=C\c1nc(-c2ccncc2)no1)/c1ccccc1	inconclusive: 0.355 µM [activator, full curve, poor fit]	–
Fc1ccc2cc(-c3ccccc3)ncc2c1	inconclusive: 10 µM [activator, partial curve, poor fit]	–
Cc1ccc(-n2c(=O)c3c(c4cc(C)ccc4n3C)n(CC(=O)Nc3ccc(F)cc3)c2=O)cc1	–	inactive: 0.0402%
CCNc1ccc(Br)cc(C(=O)/C=C/c2ccc(Cl)cc2)c1=O	inconclusive: 15.8 µM [activator, partial curve, poor fit]	–
COc1ccccc1OCC(=O)N(Cc1ccco1)Cc1ccccc1F	–	inactive: 6%
O=S(=O)(NCc1ccco1)c1cnc(Cl)c(Cl)c1	inconclusive: 20 µM [activator, single point]	–
N#C/C(=C\C=C\c1ccccc1[N+](=O)[O-])C(=O)NCc1ccccc1	inconclusive: 3.16 µM [activator, partial curve, poor fit]	–
COc1cc(/C=C/C(=O)CC(=O)/C=C/c2ccc(O)c(OC)c2)ccc1O	inconclusive: 22.4 µM [activator, single point]	–
CC(=O)c1cc2c(cc1NC(=O)C1CC=CCC1C(=O)O)OCO2 (stereo unspecified)	–	inactive: -0.55%
CSc1c(C#N)c(N)nc2sc(C(=O)c3ccccc3)c(N)c12	inconclusive: 6.31 µM [activator, partial curve]	–
Cc1cccc(CS(=O)(=O)c2nnc([C@H](Cc3ccccc3)NC(=O)OC(C)(C)C)o2)c1	inconclusive: 5.62 µM [activator, single point]	–

SMILES	Potency	activation
O=C(Nc1ccc2oc(-c3cccnc3)nc2c1)c1ccc([N+](=O)[O-])o1	inconclusive: 3.98 µM [activator, single point]	–
CCCCCCCCN1C(=O)[C@H](CC(=O)NCc2ccc(C)o2)C[C@@]2(C(=O)OC)CCCCC=C12	–	inactive: 6.43%
CC(=O)Nc1cccc(NC(=O)c2ccc(Br)cc2)c1	inconclusive: 20 µM [activator, partial curve, poor fit]	–
Cc1nn2c(-c3ccco3)nnc2c2ccccc12	active: 0.562 µM	–
COc1ccc(Nc2nc3c(c(=O)n(C)c(=O)n3C)n2CCO)cc1	inconclusive: 20 µM [activator, partial curve, poor fit]	–
COc1ccc(OC)c(/C=C/C(=O)c2ccc3c(c2)OCO3)c1	inconclusive: 22.4 µM [activator, single point]	–
Cc1cc(O)c(C(C)C)cc1N=Cc1ccc(N(C)C)cc1	inconclusive: 25.1 µM [activator, single point]	–
CCOC(=O)c1c(NC(=O)CCS(=O)(=O)c2ccccc2)sc2c1CCN(C)C2	inconclusive: 22.4 µM [activator, single point]	–
Cc1cc(=O)[nH]c2ccc(Cc3ccccc3)cc12	inconclusive: 17.8 µM [activator, single point]	–
COc1cc(/C=C/C(=O)c2ccc3c(c2)OCO3)cc(OC)c1OC	inconclusive: 12.6 µM [activator, single point]	–
[O-][n+]1onc2c3cc(-c4ccccc4)nnc3ccc21	inconclusive: 2.82 µM [activator, full curve, poor fit]	–
Cc1ccc(NC(=O)C2CCN(S(=O)(=O)c3cc([N+](=O)[O-])ccc3Cl)CC2)nc1	inconclusive: 20 µM [activator, single point]	–
O=C1CC(C(=O)Nc2ccc(Br)cc2)S/C(=N\N=C\c2ccco2)N1 (stereo unspecified)	active: 6.31 µM	–
Cc1cccc(NS(=O)(=O)c2ccccc2)n1	–	inactive: -0.034%
O=C(NCc1ccccc1)[C@]1(C(F)(F)F)C[C@H](CCc2ccccc2)CCCO1	–	inactive: -0.495%
O=c1[nH]c(Nc2ccccn2)cc2ccccc12	inconclusive: 12.6 µM [activator, partial curve]	–
O=C1CC(C(=O)Nc2ccc(F)cc2)S/C(=N\N=C\c2ccco2)N1 (stereo unspecified)	active: 11.2 µM	–
O=C(/C=C/c1ccccc1)c1c[nH]c2ccccc12	inconclusive: 5.01 µM [activator, partial curve]	–
O=C(Nc1cccc2ccccc12)c1ccc([N+](=O)[O-])o1	inconclusive: 5.62 µM [activator, single point]	–
Nc1ccc(S(=O)(=O)Nc2nccc(/C=C/c3cccc(Br)c3)n2)cc1	inconclusive: 7.94 µM [activator, partial curve]	–
COC(=O)c1c(-c2ccc(Br)cc2)noc1N	inconclusive: 25.1 µM [activator, single point]	–
COc1cnc(-c2ccccn2)nc1Oc1ccccc1	–	inactive: 0.0112%
Clc1ccsc1-c1csc(-c2cccnc2)n1	active: 2.24 µM	–
